# About 560 (0.28%) of roughly 200,000 compounds were called active. This list was built around the results that the source calls inconclusive (neither active nor inactive); the mix of calls is not that of the screen. Calls come from the whole dose curve; as a rule, active = well fitted inhibition curve with a large enough effect; inconclusive = small, poorly fitted or top-dose-only effect; inactive = flat fitted curve, though single readings scatter. Potencies of inconclusive entries are left out as doubtful fits.
# Biological target: Luciferin 4-monooxygenase (Photuris pensylvanica) (UniProt Q27757)
# Assay: Counterscreen for Luciferase (Kinase-Glo TM) Inhibition; note: nearly all actives have a fitted effect of over 60% in size
# Settings: ATP luminescence, 8 min; series mostly up to 38.3 µM
# Experimental: NCGC Assay Overview: NIH Molecular Libraries Screening Centers Network [MLSCN] NIH Chemical Genomics Center [NCGC] MLSCN Grant: None Luciferase (Kinase-Glo, Promega Corporation) was assayed for its ability to generate light using ATP and luciferin as substrates. The ATP concentration in the assay (10 uM) was within the linear range of enzyme activity for the assay conditions used.
# NCGC Assay Protocol Summary: Four uL of substrate mix (final concentration, 50 mM imidazole pH 7.2, 50 mM KCl, 7 mM MgCl2, 10 uM ATP, 0.01% Tween 20, 0.05% BSA) was dispensed into white 1536 well plates. Twenty-three nL of compound was delivered by a pin tool and 2 uL of luciferase detection mix (Kinase-Glo, Promega)) was added. Following 8-minute incubation at ambient temperature, luminescence was measured by a ViewLux (Perkin Elmer) at 5 seconds exposure/plate.
# Potency is the fitted concentration of half-maximal effect; tags give direction and shape of the fitted curve.
row,Structure (SMILES),Potency
1,O=[N+]([O-])c1ccc(NC(=S)N/C(=N/CS(=O)(=O)c2ccccc2)c2ccccc2)cc1,inactive
2,N#Cc1c(/N=C/c2cccs2)sc2c1CCCCC2,"inconclusive [inhibitor, single point]"
3,COc1ccc(C(=O)/C=C/C(=O)N(CC(=O)NC2CCCCC2)Cc2ccc(F)cc2)c(O)c1,inactive
4,Cc1nc2c(cnn2-c2ccccc2Cl)c(=O)n1-c1ccc(N2CCC(C)CC2)cc1,inactive
5,O=C(/C=C/NNC(=O)c1ccccc1)c1ccc([N+](=O)[O-])cc1,"inconclusive [inhibitor, partial curve]"
6,O=C(Nc1ccc(C(=O)N2CCCC2)cc1)c1ccccc1F,"inconclusive [inhibitor, partial curve]"
7,Nc1ccc2c(c1)C(=O)C(=O)c1ccccc1-2,"inconclusive [inhibitor, single point]"
8,O=C(Nc1nnc(CCN2CCCCC2)s1)c1ccccc1Cl,inactive
9,Cc1nc2cc(NC(=O)Nc3ccccc3Cl)ccc2n1C,"inconclusive [inhibitor, partial curve]"
10,Cc1cccc(-c2cc3c(nn2)-c2ccccc2C3=O)c1,"inconclusive [inhibitor, partial curve]"
11,C/C(=N/NC(=O)c1cc(C2CC2)[nH]n1)c1cccs1,"inconclusive [inhibitor, partial curve]"
12,NC(=O)c1ccc[n+]([C@@H]2OC(COP(=O)([O-])OP(=O)(O)OCC3OC(n4cnc5c(N)ncnc54)C(O)C3O)C(O)C2O)c1 (some centres not stated),"inconclusive [inhibitor, partial curve]"
13,O=C(N=Nc1c(O)[nH]c2ccccc12)c1cccs1,"inconclusive [inhibitor, single point]"
14,Clc1ccc(SCCCCN2CCOCC2)cc1,inactive
15,Cc1c(/C=C/C(=O)c2ccccc2)cnn1C,"inconclusive [inhibitor, single point]"
16,CCOc1ccc2nc(/N=C/c3c(C)[nH]n(-c4ccccc4)c3=O)sc2c1,"inconclusive [inhibitor, partial curve]"
17,Cc1csc2nc(CCNS(=O)(=O)c3cccs3)cn12,inactive
18,NC(=O)c1cc(N)ccc1N1CCCC1,inactive
19,COc1cccc(C(=O)/C=C/Nc2cccc(O)c2)c1,"inconclusive [inhibitor, partial curve]"
20,O=C(O)c1ccccc1NS(=O)(=O)c1ccc(NNC(=S)Nc2ccc(OC(F)F)cc2)c([N+](=O)[O-])c1,"inconclusive [inhibitor, single point]"
21,N/C(=N\OC(=O)c1ccc(Br)cc1)c1ccccc1,"inconclusive [inhibitor, partial curve]"
22,Cc1ccc(C(=O)Nc2ccc3c(c2)OCCO3)o1,"inconclusive [inhibitor, partial curve]"
23,C/C(=N/N=C/c1ccc(N(C)C)cc1)c1ccccc1,active: 8.91 µM
24,O=C(Cc1cccs1)Nc1cccc(-c2nc3cc4ccccc4cc3[nH]2)c1,"inconclusive [inhibitor, partial curve]"
25,O=C(Nc1nc2ccccc2s1)c1ccc2c(c1)OCO2,"inconclusive [inhibitor, single point]"
26,CCN1/C(=C/c2ccc3cccc(C)c3[n+]2CC)Sc2ccccc21,inactive

row,Structure (SMILES),Potency
1,Fc1ccc(-c2nnc(NC3=NCCCCC3)o2)cc1,active: 11.2 µM
2,CCC(=O)Oc1ccc(C(=O)Nc2c[nH]c(=O)[nH]c2=O)cc1,"inconclusive [inhibitor, partial curve]"
3,N#CC(=C1CCCC1)c1nc(-c2ccccc2O)cs1,"inconclusive [inhibitor, single point]"
4,N#CCSc1nc2[nH]ncc2c(=O)n1-c1ccccc1Br,active: 10 µM
5,Clc1ccc2oc(-c3ccccn3)nc2c1,"inconclusive [inhibitor, single point]"
6,Cc1nc(NC(=O)c2ccccc2)nc2cc3c(cc12)OCO3,"inconclusive [inhibitor, partial curve]"
7,O=C(Cc1nc(=O)c2ccccc2s1)Nc1ccccc1,"inconclusive [inhibitor, single point]"
8,NS(=O)(=O)c1ccc(NC(=S)Nc2nn(Cc3ccc(Cl)cc3Cl)cc2Cl)cc1,inactive
9,CCN(CCN(C)C)C(=O)c1ccc2c(c1NCCO)C(=O)c1ccccc1C2=O,"inconclusive [inhibitor, single point]"
10,O=C(Nc1ccc(-c2nc3cccnc3s2)cc1)C1CCCO1 (configuration not stated),"inconclusive [inhibitor, partial curve]"
11,Cc1csc(NC(=O)c2cnccn2)n1,"inconclusive [inhibitor, single point]"
12,O=[N+]([O-])C1=CC=C2C(=NC3(CCCCC3)N2O)C1=NCCO,"inconclusive [inhibitor, single point]"
13,CCCOc1ccc(-c2cn3ccccc3n2)cc1[N+](=O)[O-],"inconclusive [inhibitor, partial curve]"
14,Oc1cc2c(cc1O)C1c3ccc(O)c(O)c3OCC1(O)C2 (configuration not stated),"inconclusive [inhibitor, partial curve]"
15,CSc1nc(O)c(/C=C2\C=Nc3ccccc32)[nH]1,active: 6.31 µM
16,Cc1occc1C(=O)N/N=C/c1cccs1,"inconclusive [inhibitor, partial curve]"
17,COc1ccc(C(=O)Nc2cccc(OC)c2)cc1,active: 7.94 µM
18,CC(CC(=O)c1cccs1)CC(=O)c1cccs1,inactive
19,O=C1C(C2=NC(C(=O)O)C3C(=O)N(c4ccccc4)C(=O)C23)=C(O)c2ccccc21 (configuration not stated),"inconclusive [inhibitor, single point]"
20,COc1nccnc1NS(=O)(=O)c1ccc(NC(=S)NC(=O)/C=C/c2ccccc2)cc1,inactive
21,COc1ccc2c(c1)c(=O)oc1cc(OCC(=O)N3CCCC(C)C3)ccc12 (configuration not stated),inactive
22,CCOc1ccc(NC(=O)Nc2cc(C)ccc2OC)cc1,"inconclusive [inhibitor, single point]"
23,Brc1ccc(N/N=C(/N=Nc2nn[nH]n2)c2ccccc2)cc1,"inconclusive [inhibitor, single point]"
24,O=C(NC1CCSC1=O)c1cccc(C(=O)NC2CCSC2=O)c1 (configuration not stated),inactive
25,Cc1nc2cc(NC(=O)Nc3nccs3)ccc2n1C,"inconclusive [inhibitor, single point]"
26,Cc1nc2sc(-c3ccccc3)cc2c(=O)[nH]1,"inconclusive [inhibitor, partial curve]"

row,Structure (SMILES),Potency
1,Cn1c(Cn2nnc(-c3ccccc3)n2)nnc1SCc1ccccc1Cl,inactive
2,Cc1ccc(C(=O)O/N=C(\N)c2nonc2N)cc1,active: 11.2 µM
3,COc1ccccc1C(=O)Nc1ccc(NC(=O)c2ccco2)c(C)c1,active: 10 µM
4,O=C(/C=C/Nc1ccccc1F)c1cccs1,"inconclusive [inhibitor, partial curve]"
5,N/C(=N\OC(=O)/C=C/c1ccccc1Cl)c1ccccn1,"inconclusive [inhibitor, single point]"
6,CC(=O)c1sc2nc(-c3cccs3)cc(C(F)(F)F)c2c1N,inactive
7,O=C(Oc1ccc(-c2nc(-c3ccccn3)no2)cc1)c1ccccc1,active: 4.47 µM
8,Cc1ccc2cc(/C=N/Nc3nc4ccccc4[nH]3)c(Cl)nc2c1,active: 6.31 µM
9,COc1cccc(C=Nc2ccc3c(c2)OCCO3)c1O,active: 7.94 µM
10,O=c1oc(-c2ccccc2)nc2sc3c(c12)CCCC3,"inconclusive [inhibitor, partial curve]"
11,O=C(O)Cc1ccc2sc(-c3ccccc3)nc2c1,"inconclusive [inhibitor, partial curve]"
12,CN(C)c1ccc(-c2noc(-c3ccccc3O)n2)cc1,"inconclusive [inhibitor, single point]"
13,Cn1c(N=Nc2ccc(N3CCOCC3)cc2)[n+](C)c2ccccc21,active: 12.6 µM
14,Cc1ccsc1/C=C1/C(=O)NN(c2ccccc2)C1=O,"inconclusive [inhibitor, partial curve]"
15,Oc1cccc2ccc(/C=C/c3ccc(Br)s3)nc12,"inconclusive [inhibitor, single point]"
16,c1c2c(cc3sc(N4CCCCC4)nc13)OCO2,active: 12.6 µM
17,CCCCN1C(C)=CC(=C2C(=O)c3ccccc3C2=O)C=C1C,"inconclusive [inhibitor, single point]"
18,Oc1cccc(/C=N/c2c(-c3ccco3)nc3ccccn23)c1,"inconclusive [inhibitor, single point]"
19,Cc1ccccc1/C(N)=N/OC(=O)c1ccc(F)cc1,"inconclusive [inhibitor, partial curve]"
20,O=C1/C(=C/c2ccco2)CCc2ccccc21,"inconclusive [inhibitor, partial curve]"
21,COc1cccc(/C=N/NC(=O)C(=O)NCc2cccnc2)c1O,inactive
22,Cc1ccc(-n2[nH]c(C)c(C=Nc3ccc(S(=O)(=O)Nc4nccs4)cc3)c2=O)cc1,"inconclusive [inhibitor, partial curve]"
23,CCOC(=O)c1c(Cc2ccccc2)c[nH]c1C,inactive
24,Cc1cc(C(=O)Nc2ccon2)c(C)o1,inactive
25,O=C1Nc2ccccc2Nc2ncccc21,inactive

# Reference: PubChem BioAssay AID1379 (National Center for Advancing Translational Sciences (NCATS), 2008)
